Molecular target: T1, Full-length human low-density lipoprotein receptor-related protein 1 (LRP1) (human, UniProt Q07954 20-4544)
T1 construct: Written here as one chain; source: purified from placenta
Test: SPR; full-length LRP1 coupled to the chip (Biacore 3000); single-cycle kinetic titration of tau forms (3.8, 11.5, 34.4, 103.3, 310 nM, 3.5-min injections), with Ca2+; Req from a pseudo first-order fit plotted against concentration, KD by nonlinear regression
Conditions: both partners purified

T1 sequence (Q07954 20-4544): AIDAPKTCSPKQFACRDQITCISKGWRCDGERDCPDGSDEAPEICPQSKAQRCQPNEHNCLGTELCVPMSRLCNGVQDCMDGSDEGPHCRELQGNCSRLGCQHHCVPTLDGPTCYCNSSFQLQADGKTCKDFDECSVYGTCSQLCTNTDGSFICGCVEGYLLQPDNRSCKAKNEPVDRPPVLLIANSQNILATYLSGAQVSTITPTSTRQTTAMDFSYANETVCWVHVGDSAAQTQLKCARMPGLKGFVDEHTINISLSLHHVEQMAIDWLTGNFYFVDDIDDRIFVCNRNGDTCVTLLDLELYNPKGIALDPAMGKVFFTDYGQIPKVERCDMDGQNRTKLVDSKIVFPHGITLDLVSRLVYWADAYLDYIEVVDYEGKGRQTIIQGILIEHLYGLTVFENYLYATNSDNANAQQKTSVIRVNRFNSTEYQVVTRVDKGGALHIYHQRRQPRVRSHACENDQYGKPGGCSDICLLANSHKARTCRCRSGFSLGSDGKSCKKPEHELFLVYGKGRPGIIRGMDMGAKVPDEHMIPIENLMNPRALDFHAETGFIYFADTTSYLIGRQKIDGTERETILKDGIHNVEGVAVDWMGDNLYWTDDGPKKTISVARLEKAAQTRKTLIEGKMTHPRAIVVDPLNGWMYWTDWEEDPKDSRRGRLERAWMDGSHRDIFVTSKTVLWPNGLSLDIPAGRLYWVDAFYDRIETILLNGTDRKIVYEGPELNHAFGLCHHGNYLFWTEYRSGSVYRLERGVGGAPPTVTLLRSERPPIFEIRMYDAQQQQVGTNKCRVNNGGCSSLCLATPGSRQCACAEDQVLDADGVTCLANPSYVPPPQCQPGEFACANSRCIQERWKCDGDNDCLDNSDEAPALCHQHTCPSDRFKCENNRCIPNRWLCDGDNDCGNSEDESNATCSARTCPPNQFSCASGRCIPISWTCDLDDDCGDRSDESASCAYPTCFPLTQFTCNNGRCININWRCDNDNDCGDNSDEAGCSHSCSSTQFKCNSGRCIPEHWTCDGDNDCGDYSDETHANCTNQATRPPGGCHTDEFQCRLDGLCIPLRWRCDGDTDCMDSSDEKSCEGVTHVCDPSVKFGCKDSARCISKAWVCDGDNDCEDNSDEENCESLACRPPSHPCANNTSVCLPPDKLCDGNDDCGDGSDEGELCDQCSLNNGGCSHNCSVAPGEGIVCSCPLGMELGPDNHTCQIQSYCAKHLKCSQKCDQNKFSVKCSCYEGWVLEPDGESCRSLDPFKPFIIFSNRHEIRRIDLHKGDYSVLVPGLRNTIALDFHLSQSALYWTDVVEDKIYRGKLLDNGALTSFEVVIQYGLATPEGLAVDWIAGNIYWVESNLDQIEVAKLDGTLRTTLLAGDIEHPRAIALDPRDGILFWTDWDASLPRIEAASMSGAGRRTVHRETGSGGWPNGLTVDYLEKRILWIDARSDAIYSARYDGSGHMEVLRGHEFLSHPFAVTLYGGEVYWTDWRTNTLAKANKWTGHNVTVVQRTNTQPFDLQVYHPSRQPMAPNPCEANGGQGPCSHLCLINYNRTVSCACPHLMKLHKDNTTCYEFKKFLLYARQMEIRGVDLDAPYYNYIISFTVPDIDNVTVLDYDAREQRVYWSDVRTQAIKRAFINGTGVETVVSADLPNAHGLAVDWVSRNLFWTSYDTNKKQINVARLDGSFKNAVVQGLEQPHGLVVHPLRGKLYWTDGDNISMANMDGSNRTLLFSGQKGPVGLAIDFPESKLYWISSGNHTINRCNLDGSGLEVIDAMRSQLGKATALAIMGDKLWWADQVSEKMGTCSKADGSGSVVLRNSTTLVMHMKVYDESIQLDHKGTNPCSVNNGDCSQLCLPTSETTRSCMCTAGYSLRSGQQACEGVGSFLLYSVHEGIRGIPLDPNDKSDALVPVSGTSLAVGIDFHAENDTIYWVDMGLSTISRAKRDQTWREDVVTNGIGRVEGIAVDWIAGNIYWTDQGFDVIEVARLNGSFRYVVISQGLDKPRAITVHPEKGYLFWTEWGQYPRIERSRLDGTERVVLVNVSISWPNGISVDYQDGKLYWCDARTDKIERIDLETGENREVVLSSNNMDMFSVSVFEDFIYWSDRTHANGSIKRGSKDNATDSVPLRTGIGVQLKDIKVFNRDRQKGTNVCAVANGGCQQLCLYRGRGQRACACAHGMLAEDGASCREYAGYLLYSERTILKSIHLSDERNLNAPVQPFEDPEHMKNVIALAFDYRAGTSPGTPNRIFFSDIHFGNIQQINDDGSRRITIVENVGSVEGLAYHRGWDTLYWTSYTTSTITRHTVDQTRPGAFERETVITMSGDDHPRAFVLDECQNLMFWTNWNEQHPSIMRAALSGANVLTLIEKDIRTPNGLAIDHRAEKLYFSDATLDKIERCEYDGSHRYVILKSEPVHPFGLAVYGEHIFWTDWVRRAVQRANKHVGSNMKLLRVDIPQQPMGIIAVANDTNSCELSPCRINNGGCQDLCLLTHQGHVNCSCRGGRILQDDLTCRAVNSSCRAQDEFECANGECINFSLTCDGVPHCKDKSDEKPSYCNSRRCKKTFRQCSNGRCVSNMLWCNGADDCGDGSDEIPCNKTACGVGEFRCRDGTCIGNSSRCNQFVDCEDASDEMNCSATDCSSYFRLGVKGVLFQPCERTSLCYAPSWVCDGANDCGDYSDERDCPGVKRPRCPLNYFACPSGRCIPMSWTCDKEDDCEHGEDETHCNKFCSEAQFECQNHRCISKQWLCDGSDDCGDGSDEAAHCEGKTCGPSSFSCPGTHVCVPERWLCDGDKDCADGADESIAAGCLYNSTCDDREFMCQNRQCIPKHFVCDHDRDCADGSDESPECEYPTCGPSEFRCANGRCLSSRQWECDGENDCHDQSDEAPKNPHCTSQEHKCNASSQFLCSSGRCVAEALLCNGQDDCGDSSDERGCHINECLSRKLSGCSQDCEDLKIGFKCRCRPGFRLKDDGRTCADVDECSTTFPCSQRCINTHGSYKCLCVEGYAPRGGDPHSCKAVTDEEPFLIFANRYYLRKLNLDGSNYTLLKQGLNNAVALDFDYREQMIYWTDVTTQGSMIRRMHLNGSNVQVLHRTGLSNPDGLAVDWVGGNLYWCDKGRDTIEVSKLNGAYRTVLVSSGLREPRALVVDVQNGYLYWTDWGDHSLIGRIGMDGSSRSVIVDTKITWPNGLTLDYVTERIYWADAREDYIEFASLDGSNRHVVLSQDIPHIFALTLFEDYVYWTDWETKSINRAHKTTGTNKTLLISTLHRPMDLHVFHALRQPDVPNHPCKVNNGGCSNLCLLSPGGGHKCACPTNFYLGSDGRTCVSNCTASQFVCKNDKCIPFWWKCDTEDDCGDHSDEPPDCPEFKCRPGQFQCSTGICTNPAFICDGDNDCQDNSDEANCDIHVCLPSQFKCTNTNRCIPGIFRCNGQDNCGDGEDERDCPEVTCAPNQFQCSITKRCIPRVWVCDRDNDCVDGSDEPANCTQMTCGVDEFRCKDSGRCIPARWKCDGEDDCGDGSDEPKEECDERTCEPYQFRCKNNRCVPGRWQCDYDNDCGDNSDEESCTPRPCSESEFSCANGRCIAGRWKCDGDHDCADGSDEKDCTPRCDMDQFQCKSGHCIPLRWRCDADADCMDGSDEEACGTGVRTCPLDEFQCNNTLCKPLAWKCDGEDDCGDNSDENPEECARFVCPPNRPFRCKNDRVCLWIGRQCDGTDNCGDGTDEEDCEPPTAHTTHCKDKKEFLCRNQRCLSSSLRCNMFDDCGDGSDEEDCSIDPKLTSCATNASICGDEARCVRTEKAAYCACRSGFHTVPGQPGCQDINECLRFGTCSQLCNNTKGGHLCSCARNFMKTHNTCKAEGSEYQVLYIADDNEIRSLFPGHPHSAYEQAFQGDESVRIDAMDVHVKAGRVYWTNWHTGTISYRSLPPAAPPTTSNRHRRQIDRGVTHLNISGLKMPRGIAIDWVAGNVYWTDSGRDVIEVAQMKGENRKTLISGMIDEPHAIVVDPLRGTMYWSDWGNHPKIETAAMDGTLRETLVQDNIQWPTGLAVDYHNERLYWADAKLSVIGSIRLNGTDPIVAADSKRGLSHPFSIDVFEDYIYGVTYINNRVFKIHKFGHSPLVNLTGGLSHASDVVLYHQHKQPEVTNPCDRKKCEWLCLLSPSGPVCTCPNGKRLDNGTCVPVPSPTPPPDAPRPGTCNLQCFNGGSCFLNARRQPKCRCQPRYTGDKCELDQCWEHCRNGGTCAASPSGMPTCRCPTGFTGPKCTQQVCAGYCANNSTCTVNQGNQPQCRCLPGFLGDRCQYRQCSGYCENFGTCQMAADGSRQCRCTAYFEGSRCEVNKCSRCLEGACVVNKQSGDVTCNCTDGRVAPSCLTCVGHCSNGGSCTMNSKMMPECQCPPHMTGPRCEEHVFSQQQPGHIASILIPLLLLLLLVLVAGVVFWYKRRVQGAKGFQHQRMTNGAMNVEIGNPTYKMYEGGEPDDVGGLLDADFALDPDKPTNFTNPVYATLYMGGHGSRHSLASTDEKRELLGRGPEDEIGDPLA

Kd [nM]	Binder
278 ± 55	tau, 2N3R isoform (natural protein, also called 3R tau; source: E. coli, purified) not shown
73 ± 18	tau microtubule-binding domain (MBD; R1-R4, leu243-glu372) (domain or fragment, also called tau MBD; source: bought: R&D Systems (SP-496)) not shown

Reference: paper PMC8164048, “Regulation of tau internalization, degradation, and seeding by LRP1 reveals multiple pathways for tau catabolism” (The Journal of Biological Chemistry, 2021)
